# According to the RNAGym collection of RNA variant scans (doi:10.1073/pnas.2313332121):
# This sample is rich in variants without activity.
# B1: TPR 5TU (parent)
# chain: GGAUCUUCUCGAUCUAACAAAAAAGACAAAUCUGCCACAAAGCUUGAGAGCAUCUUCGGAUGCAGAGGCGGCAGCCUUCGGUGGCGCGAUAGCGCCAACGUUCUCAACUAUGACACGCAAAACGCGUGCUCCGUUGAAUGGAGUUUAUCAUG
# Variants of: B1
# Assay: polymerase ribozyme fitness, log enrichment relative to wild type (log ratio); higher = more active; in vitro selection for triplet polymerase activity
# Method in brief: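 The heterodimeric triplet polymerase ribozyme's subunits were each mutagenized into PCR-built libraries and transcribed. Every library was selected once, in triplicate, by annealing with a biotinylated primer, the partner subunit and triplets, incubating frozen at −7 °C, gel-excising extended constructs, capturing on streptavidin beads and running RT-PCR. Input and output libraries were Illumina-sequenced, with genotypes kept only at ≥10 input reads and ≥1 read per output. Fitness, from inverse-variance-weighted replicate averages, is the base-2 logarithm of genotype enrichment over wild-type enrichment.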
row,Variant,polymerase ribozyme fitness (log ratio)
1,U31C U55A G86C,-2.47
2,C32A G83U A106U A115G G140C,≤ -4.2
3,U31C G42C G68C G92U,≤ -4.2
4,C32G G42A U77C G84U,≤ -4.2
5,U31G G58A C85A C114G A115U,-4.05
6,C32G A47C C99U U102A,≤ -4.2
7,C32A A49U C63U A97U U109G,≤ -4.2
8,C32U A37C C76A A89C C95A C96A U127G G133C G141A,≤ -4.2
9,C32G G48A G62C C96U C114A,≤ -4.2
10,C32A G86A C93A C114A,≤ -4.2
11,C32U C43G C87A C93G C114U,≤ -4.2
12,U31G C35U A60U A115G,-3.22
13,C32U A39U C72A C93U C114G G141A U144C A147G,≤ -4.2
14,U31C A37G A60G A64C C76U,≤ -4.2
15,C32U C69A G84A C96G U111A,≤ -4.2
16,C32G C85A,≤ -4.2
17,C32G G59C C87G,≤ -4.2
18,U31C C36G A73U G143U C149A,≤ -4.2
19,C32G U44A A110U U144G,≤ -4.2
20,U31G U90G,≤ -4.2
21,U31G A39C G50A G92U G117A G140U U145A A147G,≤ -4.2
22,C32G C57G A73U C85A U145G,≤ -4.2
23,C32G G83A C85G C108G G124A U135G,≤ -4.2
24,C32U A39U U82A C85G G92A U101C G133C,≤ -4.2

row,Variant,polymerase ribozyme fitness (log ratio)
1,C32G A41C U55A C76U G94A C114A G141C C149A,≤ -4.2
2,U31G C57G G58A A106G U111G G143U U144A,≤ -4.2
3,C32U G50A A110G A115G C131G G133U,≤ -4.2
4,U31G U33A U55G C99U U111C,≤ -4.2
5,U31G C125U U130A,≤ -4.2
6,U31C C57A G83U C118U G124U A142C,-2.24
7,U31G C87G U145G,≤ -4.2
8,U31C A60U C72G C87A U139C,≤ -4.2
9,C32A U55A C76U A89G G92U U135G,≤ -4.2
10,C32U A60U C69U C85U G100C A119U U130C U148G,≤ -4.2
11,C32U A40C C85A C114U U139C,≤ -4.2
12,C32A A52G C75A G86U C99U C114U C125U,≤ -4.2
13,C32G G92C A98U A106C G124C,≤ -4.2
14,U31G C75G C96G U130G,≤ -4.2
15,C32U C35A G58U C96U C125U,≤ -4.2
16,U31C A97G U135C U146C,-1.76
17,U31G G81U C87G U104G G128C,≤ -4.2
18,C32A C87A,≤ -4.2
19,C32A C87U,-3.44
20,C32A C38A U44A C63U U134A,≤ -4.2
21,C32A U53G C85U C96G G136C,≤ -4.2
22,U31C C32A G67A G100U U134G G141U,≤ -4.2
23,C32A,-2.96
24,C32U,-1.22

row,Variant,polymerase ribozyme fitness (log ratio)
1,C32G,-3.19
2,C32G U44A G50A G65C C87U,≤ -4.2
3,C32G G58C G62C C79G C96U A113C,≤ -4.2
4,C32A G50U A64C G94A,≤ -4.2
5,C32G G48A U55A A91U C95A G117C A122G U134G U148G,≤ -4.2
6,U31C U56A G58C A98U C149U,0.414
7,C32G A110G A122C G141C,-4.02
8,C32A A89G C95U U101G U134G G141C,≤ -4.2
9,U31G C32G G58U G83A A89G U144G,≤ -4.2
10,C32G G50A C79U G140A A142G,≤ -4.2
11,C32A A37C,≤ -4.2
12,C32U A37G G46U U77C G86C A115G A119U,≤ -4.2
13,C32G A37G C38U U56A A119C,≤ -4.2
14,U31G G124C C149G,≤ -4.2
15,U31C G34A C69G C85U U134C,-1.39
16,C32G C51U G94U C99A A119C G126U A147G,≤ -4.2
17,C32U C35U U55A G81A U82G C85A,≤ -4.2
18,C32G C54U G80C U109G,≤ -4.2
19,U31G A37C G126U,-2.65
20,C32A U45G G46A C99G C103G U127C U148G,≤ -4.2
21,C32G U53A U55G C75A,≤ -4.2
22,U31C U44G U77C C93U G117A A138C U145G U151A,≤ -4.2
23,U31G G46C G50U C95G C116U C131G A142U,≤ -4.2
24,C32G A37C G59C C75G C76A A97U C114G,≤ -4.2

row,Variant,polymerase ribozyme fitness (log ratio)
1,C32G G46A A52G U53A A60U C87A A89U A142U,≤ -4.2
2,C32U A41C A52C U82C U90G A107C,≤ -4.2
3,U31C G42C C54G U139C C149G,≤ -4.2
4,U31C C35G C36U G68C C69U G92A C118G G133U G140C A147G C149U,≤ -4.2
5,C32U C51U C57U G86A U101C G136U,≤ -4.2
6,C32A A66G G84C U144A G152A,≤ -4.2
7,C32A U61A G81C U82A G88A C96A C108U C123G U151C,≤ -4.2
8,C32G C54A C75G C129U,≤ -4.2
9,C32U C36A U55A U77G A91U G140U,-3.95
10,C32A C96U,-4.11
11,U31C C38U C87G A115G,≤ -4.2
12,U31G U56G C85G U101G A120U G140U,≤ -4.2
13,C32G G59A G86A C125A C149G,≤ -4.2
14,U31C G94C C105A,-1.61
15,U31C A52U C75G C95U U145C,≤ -4.2
16,U31G C85U,0.998
17,C32G A52G C87U A107C A119C G141C,≤ -4.2
18,U31G C35U C57U G117A,-0.0701
19,C32G A37G G59U A60U U77A C93G U102G G133C U134C U145A,≤ -4.2
20,U31C U56G C123A G136C,-2.61
21,C32U G42A G59U C75G A106G C116G C131G C132U,≤ -4.2
22,C32G A37C A47G A97C U145G,≤ -4.2
23,U31G C95A C123G,0.831
24,C32U G46C G80C C87G C118G G124A C132G G152C,≤ -4.2

row,Variant,polymerase ribozyme fitness (log ratio)
1,C32A U44G U56A G124A C129A G141U,≤ -4.2
2,U31G A40G U61A C87U G112U G141C,≤ -4.2
3,C32U A40G C51A U56A U101A,≤ -4.2
4,U31G G50C A52C C57U,≤ -4.2
5,U31C C35A C105A,≤ -4.2
6,U31G G48C U56C G86C C96G,≤ -4.2
7,C32G G58A G84A A107G G124C U130G,≤ -4.2
8,U31C U55A G136U A150G,-1.81
9,C32A G59A G83A A97G C105U U134A,≤ -4.2
10,U31G C99U U145G,-0.861
11,U31G G48C G50A C96A A120U U145A,≤ -4.2
12,U31C G83C C87U U104G U134A G140A,≤ -4.2
13,C32G G86A G143U,≤ -4.2
14,U31G U53A C95U U135G,-3.6
15,C32G C36U C69U,≤ -4.2
16,C32G G71U C87G,≤ -4.2
17,C32U G42U C79G C129A A138G U146C,≤ -4.2
18,U31G C87U U135G,≤ -4.2
19,U31C C69G C96U G117U C118G,-1.49
20,C32G A47G U55A,≤ -4.2
21,C32A A52G G88A,≤ -4.2
22,C32A U44A U55A G86U C87U U127C A138U G143U U151A,≤ -4.2
23,U31C C36U C38G G81A C85U A107G C108A,≤ -4.2
24,U31C C38G A47G C51A U56A G83C U146C U148C,≤ -4.2

row,Variant,polymerase ribozyme fitness (log ratio)
1,U31C A37G C57G U61G U102G G128A G141U,≤ -4.2
2,C32G C85U G86C C93A C116U A120C U127A U144A C149U U151A,≤ -4.2
3,U31G U44G C75U C96A C131G,≤ -4.2
4,C32G C87A A107G,≤ -4.2
5,C32G C54A C57A C87U G141U,≤ -4.2
6,U31C C38A C103A C116U A119U G141U U146A,≤ -4.2
7,C32A C76G C87G A91U A98G U102A,≤ -4.2
8,U31G U90C A137C U148G C149U,≤ -4.2
9,U31G C63U G86A A138G,≤ -4.2
10,C32G A39G G58U G143C,-4.1
11,C32G C43U C54U A73G U77G,≤ -4.2
12,C32U C51G A60U C79U G86A U144C,≤ -4.2
13,C32A U56A G58U A91U,≤ -4.2
14,U31C U102A,0.128
15,C32G C35U C72G A106C,≤ -4.2
16,U31C G34A U78C G83C U145G,≤ -4.2
17,C32G A39C G70C C75G U78G C93U A122C C125U G140C,≤ -4.2
18,C32G A49C C87G C103G C114A,≤ -4.2
19,U31G G42U G58U G59A G86U U104G C131G G136C,≤ -4.2
20,C32G G34U C69A,≤ -4.2
21,C32G G68A A73G G86A,≤ -4.2
22,C32G C57U G80C G86C G152U,≤ -4.2
23,U31G C51G C63A A66G G83C A91U G124A A137U,≤ -4.2
24,C32G C54G C95A C105A C114U,≤ -4.2

row,Variant,polymerase ribozyme fitness (log ratio)
1,C32G C38G C93G G133U,-3.72
2,U31C G48U G59C C69G U77A,≤ -4.2
3,C32U G46C C85G,≤ -4.2
4,U31C C43U G50A U78G A106C,≤ -4.2
5,C32G U33G C43U G83C U111C,≤ -4.2
6,C32A U61G U82A G92U C99G,≤ -4.2
7,C32A A41C G94U C103A C118U,≤ -4.2
8,U31C A60C C95A C99G A122G,-3.66
9,C32G C87U A98U C149G,≤ -4.2
10,U31G A52U A60G A98G,-4
11,C32U C108G C118U G126C A142C,≤ -4.2
12,C32G U44A C57U A97U,≤ -4.2
13,C32G A41C G68C C114G G133A,≤ -4.2
14,C32G G48C U53C U82G,≤ -4.2
15,U31G C35A C54U G62A C75G,≤ -4.2
16,U31C C32A G84U A98G C108A G140A,≤ -4.2
17,C32U C35U C99U U101G C118G,≤ -4.2
18,U31G C76A C93G,≤ -4.2
19,U31G C32A U101C G126A U148C,≤ -4.2
20,C32U A37U U56C C95U U145G U148G,≤ -4.2
21,C32A C51U G58U,≤ -4.2
22,C32A C54G G58A G74A C125U A147C,≤ -4.2
23,C32G A40G C57A G83U A110U,≤ -4.2
